According to PubChem BioAssay AID411 (National Center for Advancing Translational Sciences (NCATS), 2006):
Where “and” joins values, the source holds several entries; their conditions need not be identical. Equal entries are not always repeated. About 1,600 (2.2%) of roughly 72,000 compounds were called active. The inconclusive results got no clear call from the source; some entries with a clear call stand among them for comparison. The call rests on the fitted dose curve; in most records, active means well fitted inhibition curve with a large enough effect; inconclusive means small, poorly fitted or top-dose-only effect; inactive means flat fitted curve, though single readings scatter. Potencies of inconclusive entries are left out as doubtful fits. The source holds several records for some structures; these can differ, active in one and inactive in another.

These molecules were tested against Luciferin 4-monooxygenase (Photinus pyralis) (UniProt P08659) (assay: qHTS Assay for Inhibitors of Firefly Luciferase). Settings: purified firefly luciferase, luminescence, 8 min; series mostly up to 57.1 µM.
UniProt P08659, sequence (P08659 whole entry, looked up): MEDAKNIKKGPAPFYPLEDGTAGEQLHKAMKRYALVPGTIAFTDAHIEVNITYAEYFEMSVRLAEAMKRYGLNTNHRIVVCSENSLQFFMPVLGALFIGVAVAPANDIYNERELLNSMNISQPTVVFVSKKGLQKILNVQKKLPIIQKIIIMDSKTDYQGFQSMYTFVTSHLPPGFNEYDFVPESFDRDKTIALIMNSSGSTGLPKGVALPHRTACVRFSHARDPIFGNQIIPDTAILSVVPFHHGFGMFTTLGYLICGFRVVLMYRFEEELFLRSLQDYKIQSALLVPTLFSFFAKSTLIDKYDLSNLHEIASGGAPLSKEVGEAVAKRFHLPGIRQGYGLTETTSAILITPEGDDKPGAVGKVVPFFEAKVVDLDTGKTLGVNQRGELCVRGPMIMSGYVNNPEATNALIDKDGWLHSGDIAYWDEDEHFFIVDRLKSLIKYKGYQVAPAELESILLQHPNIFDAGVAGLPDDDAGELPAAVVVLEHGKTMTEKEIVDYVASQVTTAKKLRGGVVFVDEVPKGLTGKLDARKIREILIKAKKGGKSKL
Description: To aid in the interpretation of high-throughput screening (HTS) results derived from luciferase-based assays, we used quantitative HTS, an approach that defines the concentration-response behavior of each library sample, to profile the ATP-dependent luciferase from Photinus pyralis against more than 72 000 samples. Luciferase (PKLight, Cambrex Corporation) was assayed for its ability to generate light using ATP and luciferin as substrates. The ATP concentration in the assay (10 uM) was within the linear range of enzyme activity for the assay conditions used. See following reference for further details: [1] Auld DS, Southall NT, Jadhav A, Johnson RL, Diller DJ, Simeonov A, Austin CP, Inglese J. Characterization of chemical libraries for luciferase inhibitory activity. J Med Chem. 2008 Apr 24;51(8):2372-86. Auld DS, Zhang YQ, Southall NT, Rai G, Landsman M, Maclure J, Langevin D, Thomas CJ, Austin CP, Inglese J. A Basis for Reduced Chemical Library Inhibition of Firefly Luciferase Obtained from Directed Evolution. J. Med. Chem., 2009, 52 (5), pp 1450#1458 [3] Auld DS, Thorne N, Nguyen DT, Inglese J. A specific mechanism for nonspecific activation in reporter-gene assays. ACS Chem Biol. 2008 Aug 15;3(8):463-70. Auld DS, Thorne N, Maguire WF, Inglese J. Mechanism of PTC124 activity in cell-based luciferase assays of nonsense codon suppression. Proc Natl Acad Sci U S A. 2009 Mar 3;106(9):3585-90. Inglese J, Auld DS, Jadhav A, Johnson RL, Simeonov A, Yasgar A, Zheng W, Austin CP. Quantitative high-throughput screening: a titration-based approach that efficiently identifies biological activities in large chemical libraries. Proc Natl Acad Sci U S A. 2006 Aug 1;103(31):11473-8.
Four uL of substrate mix (final concentration, 50 mM imidazole pH 7.2, 50 mM KCl, 7 mM MgCl2, 10 uM ATP, 0.01% Tween 20, 0.05% BSA) was dispensed into white 1536 well plates. Twenty-three nL of compound was delivered by a pin tool and 2 uL of luciferase detector mix (PKLight, Cambrex) was added. Following 8-minute incubation at ambient temperature, luminescence was measured by a ViewLux (Perkin Elmer) at 5 seconds exposure/plate.
Further: nearly all actives have a fitted effect of over 40% in size.
On the % scale 0 is the no-effect control and ±100 the full control effect; potency means the concentration at half of the fitted maximal effect; tags describe the fitted curve by direction and shape.

Compound	Potency	activity change, negative = inhibition
Cc1nc2c(ccc3nc(NC(=O)c4ccc5c(c4)OCCO5)sc32)s1	active: 0.794 µM	–
CC(C)=NO[C@@H](C)c1cn([C@H](CO)Cc2ccccc2)nn1	–	inactive: 0.367% [at 11.4 µM] and inactive: -0.0593% [at 11.4 µM]
Cc1ccc(Nc2nc(N)nc(CC#N)n2)cc1	inconclusive [inhibitor, single point]	–
CC(=O)Nc1cccc(-c2nnc(-c3ccccc3)o2)c1	inconclusive [inhibitor, single point]	–
O=C(Nc1ccccc1)N1CCC2(CC1)CCN(C(=O)c1ccncc1)CC2	–	inactive: 0.493% [at 11.4 µM]
CC(C)(CO)[C@H](O)C(=O)NCCC(=O)O	inactive	–
O=C(Nc1nccs1)C1C2CC3OC(=O)C1C3C2 (centres undefined)	inactive	–
O=C(NCCc1ccccc1)NC1CCCCC1	inconclusive [inhibitor, single point]	–
COc1ccc(NC(=O)c2coc3ccccc23)cc1OC	inconclusive [inhibitor, single point]	–
O=C1CC(SCCO)C(=O)N1c1ccc(Oc2ccccc2)cc1 (centres undefined)	inactive	–
O=C(OCc1nc2ccccc2s1)C1CCN(C2=NS(=O)(=O)c3ccccc32)CC1	inconclusive [inhibitor, single point]	–
Cc1cc(NC(=O)c2cc3ccccc3o2)cc(C)c1OCC(=O)N1CCOCC1	active: 15.8 µM	–
Cc1oc(/N=C/c2c(O)ccc3ccccc23)c(C#N)c1C	inactive	–
O=S(=O)(c1ccccc1)n1nc(-c2ccccc2)nc1NCc1ccco1	inactive	–
CCOC(=O)c1sc(NC(=O)c2ccc(Cl)s2)cc1C	inconclusive [inhibitor, full curve]	–
O=C(Nc1ccc2c(c1)nc1n2CCSC1)c1ccco1	active: 6.31 µM	–
CCCCCOc1ccc(C(=O)NCC(=O)NCC(=O)OCC)cc1	inactive	–
N#Cc1ccccc1NC(=O)c1ccc(-c2ccccc2Cl)o1	inconclusive [inhibitor, partial curve]	–
O=C(Nc1sc2c(c1C(=O)O)CCCCC2)c1ccco1	active: 20 µM	–
Cc1ccc(N(C(=O)Nc2ccccc2)C2=NCC(C)S2)cc1 (centres undefined)	inconclusive [inhibitor, single point]	–
CN(C)S(=O)(=O)c1ccc(C(=O)Nc2ccccc2C(=O)O)cc1	inconclusive [inhibitor, single point]	–
c1ccc(Nc2ncncc2-c2ccc3c(c2)OCO3)cc1	–	inactive: 0.726% [at 2.29 µM]
CC(=O)Nc1cccc(-c2cnc3ccccc3n2)c1	inconclusive [inhibitor, single point]	–
O=C(O)c1nc(-c2ccccc2)[nH]c1C(=O)O	inconclusive [inhibitor, single point]	–
CC(=O)N(CC1CCCO1)c1nnc(-c2ccccn2)s1 (centres undefined)	inconclusive [inhibitor, full curve]	–

Compound	Potency	activity change, negative = inhibition
COc1cc(-c2nnc(SCC(=O)N(Cc3ccccc3)C(C)(C)C)o2)cc(OC)c1OC	inconclusive [inhibitor, full curve]	–
O=C(Nc1nnc(C(F)(F)F)s1)c1cccnc1	inactive	–
COc1ccc(-c2nsc3c(N4CCCC4)ncnc23)cc1	active: 0.794 µM	–
Cc1nc2sc(-c3ccccc3)cc2c(=O)n1-n1cccc1	active: 20 µM	–
O=C(NC1CCCC1)C(c1ccsc1)N(Cc1ccco1)C(=O)Cc1cccs1 (centres undefined)	inconclusive [inhibitor, single point]	–
NNC(=O)c1ccncc1	inconclusive [inhibitor, partial curve]	–
c1ccc(CSc2ncn(-c3ccccc3)n2)cc1	inconclusive [inhibitor, single point]	–
OCc1cc([C@@H](O)CNCCCCCCOCCCCc2ccccc2)ccc1O	inactive and active: 15.8 µM	–
COc1ccc(C(=O)Nc2ccc(Cl)c(Cl)c2)c(OC)n1	inconclusive [inhibitor, full curve, poor fit]	–
c1ccc(-c2nc3ccccc3s2)nc1	inconclusive [inhibitor, partial curve, poor fit]	–
Cc1cc(C)c(OCC(=O)Nc2cccc(O)c2)cc1C	inconclusive [inhibitor, partial curve]	–
CCCCn1nc(NC(=O)c2cccs2)c2cc3cc(OC)ccc3nc21	inconclusive [inhibitor, partial curve]	–
O=C(CCNS(=O)(=O)c1ccc2c(c1)CCC(=O)N2)NCc1ccc2c(c1)OCO2	inactive	–
Nc1nc2ccccc2n1/N=C/c1ccc(-c2ccccc2)o1	inconclusive [inhibitor, partial curve]	–
CCCCCCCNS(=O)(=O)c1cccc2c(Cl)cccc12	inactive	–
Clc1ccc(-c2nn3c(-c4ccccc4)nnc3s2)cc1	inactive	–
COc1ccc2c(c1)CCc1cc(C(=O)N3CCN(c4ccc(N5CCOCC5)nn4)CC3)sc1-2	inconclusive [inhibitor, full curve, poor fit]	–
Cc1ccccc1-c1nnc(SCc2ccccc2F)o1	inconclusive [inhibitor, single point]	–
CC(=O)Oc1ccc2occ(C(=O)c3cccs3)c2c1	inconclusive [inhibitor, partial curve]	–
COc1ccc(C2C3=C(N=C4SCC(=O)N42)c2ccccc2CC3)cc1OC (centres undefined)	inactive	–
Cc1cc(C(=O)CN2C(=O)c3ccccc3S2(=O)=O)c(C)n1-c1ccccc1	active: 7.94 µM	–
CCc1nnc(NC(=O)CSc2nc(-c3ccc(OC)cc3)ns2)s1	inconclusive [inhibitor, full curve, poor fit]	–
C=CCSc1n[nH]c(-c2ccc(OC)cc2)n1	inconclusive [inhibitor, single point]	–
O=C(Nc1ccc([N+](=O)[O-])cc1Cl)c1cc(Cl)ccc1O	inconclusive [inhibitor, partial curve, poor fit]	–
